Some of the results follow. Sequences were assembled here from the parent chain. Values near 0.05 are background.
B1: TEV protease; numbered along this chain (parent)
chain: MGESLFKGPRDYNPISSSICHLTNESDGHTTSLYGIGFGPFIITNKHLFRRNNGTLVVQSLHGVFKVKDTTTLQQHLVDGRDMIIIRMPKDFPPFPQKLKFREPQREERICLVTTNFQTKSMSSMVSDTSCTFPSGDGIFWKHWIQTKDGQCGSPLVSTRDGFIVGIHSASNFTNTNNYFTSVPKNFMELLTNQEAQQWVSGWRLNADSVLWGGHKVFMVKPEEPFQPVKEATQL

Variants of: B1
Assay: raw area under fraction-flipped curve 0-4 h after induction (AUC4h, not background-subtracted), DNA-recorder readout of cleavage of the substrate (dimensionless); higher = more cleavage of the substrate by the protease variant
Conditions: temperature: 34 °C; time window: 0-4 h after rhamnose induction
Description: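 In vivo DNA recorder in E. coli TOP10(DE3) ΔrhaA at 34 °C. Each TEVp single-site mutant (parent TEVp 0) is paired with a single-site variant of the 7-mer TEVs (canonical ENLYFQ|S). The substrate sits between flexible linkers in a Bxb1-sfGFP-TEVs-SsrA fusion, so cleavage stabilises Bxb1 and speeds flipping of a recombination array, read by NGS. The value is the raw area under the fraction-flipped curve over 0-4 h after rhamnose induction (AUC4h), with ≥20 reads per time point. It is not background-subtracted; inactive controls average about 0.047.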
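Note: Bxb1 expression induced with 0.2% (w/v) L-rhamnose at OD600 near 0.5, cultures sampled hourly, flipped fraction per protease–substrate barcode pair counted by paired-end Illumina sequencing.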

Variant | area with substrate CNLYFQS | area with substrate DNLYFQS | area with substrate FNLYFQS | area with substrate HNLYFQS | area with substrate INLYFQS | area with substrate LNLYFQS | area with substrate MNLYFQS | area with substrate PNLYFQS | area with substrate TNLYFQS | area with substrate WNLYFQS | area with substrate YNLYFQS | area with substrate GNLYFQS | area with substrate KNLYFQS | area with substrate NNLYFQS | area with substrate SNLYFQS | area with substrate RNLYFQS | area with substrate VNLYFQS | area with substrate QNLYFQS
N45C | 0.0858 | 0.0694 | 0.0516 | 0.0797 | 0.074 | 0.0713 | 0.0562 | 0.0707 | 0.0739 | 0.0614 | 0.0625 | – | – | – | – | – | – | –
N45F | 0.0291 | 0.0737 | 0.0674 | 0.0666 | 0.0577 | 0.0647 | 0.0486 | 0.0653 | – | 0.059 | 0.0575 | 0.0638 | 0.0671 | 0.0567 | 0.0631 | – | – | –
N45M | 0.0483 | 0.0684 | 0.0696 | 0.0664 | – | – | – | 0.0679 | 0.0689 | 0.0614 | 0.0641 | – | 0.0535 | 0.0645 | 0.0431 | 0.0554 | – | –
N45R | 0.0608 | 0.0575 | 0.0603 | 0.0507 | 0.0545 | – | 0.0637 | 0.0536 | 0.0517 | 0.0734 | – | – | 0.0464 | 0.0559 | 0.0655 | – | 0.0607 | –
Q59M | 0.0584 | 0.0667 | 0.0622 | 0.0641 | – | 0.0629 | – | – | 0.061 | 0.0558 | 0.0795 | 0.0558 | 0.0646 | 0.0512 | 0.0721 | 0.0455 | – | 0.0542
Q59F | 0.0714 | 0.0684 | 0.051 | 0.069 | 0.0515 | 0.0408 | 0.0667 | 0.0617 | 0.0585 | 0.0545 | 0.0575 | – | – | 0.0682 | 0.0774 | – | – | –
N52K | 0.0749 | 0.0377 | 0.05 | 0.0617 | 0.062 | 0.0659 | – | 0.0613 | 0.0564 | 0.054 | 0.0343 | – | 0.0748 | 0.0893 | – | – | – | –
N52D | 0.0557 | 0.0624 | – | 0.0626 | 0.0571 | 0.0708 | – | 0.0595 | 0.055 | 0.0564 | 0.0792 | – | – | 0.0541 | 0.0666 | – | 0.0717 | –
R50E | 0.0437 | 0.0791 | 0.0545 | 0.0586 | 0.05 | 0.0626 | 0.0806 | 0.0705 | 0.0855 | 0.0589 | – | 0.0589 | 0.0613 | 0.0539 | 0.0528 | – | 0.0682 | 0.0742
L56E | 0.034 | 0.0456 | – | – | 0.0474 | 0.036 | 0.0501 | – | 0.0529 | 0.0423 | – | 0.0571 | – | – | – | – | – | –
T55F | 0.0844 | 0.0737 | – | 0.0668 | 0.0753 | – | – | 0.0698 | 0.0626 | 0.0562 | 0.0698 | – | 0.0305 | – | 0.0654 | 0.0549 | – | –
R51F | 0.0679 | 0.0899 | – | 0.0706 | 0.0678 | – | – | 0.0753 | – | 0.0681 | 0.0653 | 0.069 | – | – | 0.0689 | – | – | 0.0519
R51K | 0.072 | 0.0852 | 0.0404 | – | – | – | 0.0505 | – | 0.0551 | 0.0607 | 0.0644 | – | – | – | 0.0538 | – | – | –
K46W | 0.0533 | 0.0557 | 0.0586 | 0.0448 | – | 0.0531 | 0.0568 | 0.061 | 0.0558 | 0.06 | 0.0518 | 0.0538 | 0.0609 | 0.0418 | 0.0568 | – | 0.067 | 0.0841
K46V | 0.0739 | 0.06 | – | – | 0.0575 | 0.0547 | – | – | 0.0516 | 0.0559 | 0.0681 | – | 0.0498 | 0.0427 | – | – | 0.0565 | 0.0668
K46I | 0.0496 | 0.0586 | 0.0465 | – | 0.0532 | 0.0526 | 0.0576 | 0.0597 | 0.0522 | 0.0523 | – | 0.0692 | 0.0575 | 0.0672 | 0.0637 | – | 0.0564 | 0.0713
T44H | 0.0374 | 0.0517 | 0.0377 | 0.0549 | – | 0.0199 | 0.0488 | 0.0478 | 0.0443 | 0.0454 | 0.0531 | 0.0465 | 0.0632 | – | 0.0508 | – | 0.0505 | –
S60M | 0.0681 | 0.0882 | 0.0614 | 0.0652 | 0.0663 | – | – | 0.0703 | 0.0727 | 0.0584 | 0.0649 | – | 0.0635 | 0.0687 | – | – | – | –
S60R | 0.0607 | 0.0888 | 0.0538 | 0.0686 | 0.0574 | 0.0611 | – | 0.0643 | 0.0447 | 0.053 | – | 0.0687 | 0.0624 | 0.0678 | 0.0369 | – | – | 0.04
S60P | 0.0506 | 0.0639 | – | 0.0455 | – | 0.0405 | 0.0666 | 0.0463 | 0.0524 | 0.0421 | 0.0498 | 0.037 | 0.0524 | 0.0389 | – | – | – | 0.052
L61E | 0.0759 | 0.0441 | – | 0.0693 | 0.0576 | 0.0553 | 0.0477 | 0.0742 | 0.0632 | – | 0.0612 | – | 0.0733 | – | 0.0816 | – | – | –
H62S | 0.0729 | 0.0787 | 0.0571 | 0.0692 | – | 0.0533 | 0.0615 | 0.0629 | 0.0732 | – | 0.062 | 0.0669 | – | – | – | 0.0579 | – | 0.0736
H62W | 0.0665 | 0.0623 | – | 0.0568 | 0.0942 | 0.0678 | 0.0614 | 0.0794 | 0.0451 | 0.0642 | 0.0543 | 0.0798 | – | 0.0976 | – | 0.0259 | 0.0657 | –
H62R | 0.0568 | 0.0775 | – | 0.0648 | 0.0635 | – | 0.0426 | – | 0.0848 | – | 0.0539 | 0.0769 | – | 0.0728 | – | – | – | –
H47P | 0.0578 | 0.0566 | – | 0.0485 | 0.0574 | – | 0.0504 | 0.0896 | 0.0631 | 0.0585 | 0.0388 | – | 0.057 | 0.0694 | 0.034 | – | 0.06 | –
H47M | 0.0589 | 0.066 | 0.0625 | 0.0578 | 0.0563 | 0.061 | – | 0.0465 | 0.0585 | 0.0526 | 0.0359 | 0.0582 | – | 0.0683 | 0.0654 | – | – | 0.0513
G54S | 0.0469 | 0.0769 | – | 0.0544 | – | 0.0565 | 0.0571 | 0.0585 | 0.0563 | 0.0622 | 0.0456 | 0.0582 | 0.063 | 0.0415 | 0.058 | – | 0.0791 | –
V58F | 0.0596 | 0.0734 | – | – | 0.0569 | 0.0653 | – | – | – | – | – | – | 0.0545 | 0.0583 | – | – | – | –
